Laboratory results: the supplement of paper PMC12067230
Single values of this set are uncertain.
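Further: [psi-pin-] Saccharomyces cerevisiae expressing SupN fusions, induced by 100 µM Cu2SO4, selected 7 d at 30 °C without adenine and uracil, scored by deep sequencing of output versus input.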

Test: amyloid nucleation score relative to library mode (yeast Sup35 reporter selection) (log enrichment difference); higher = more amyloid nucleation; sequences are the first 22 residues of the Bri2 peptide extended by up to 12 random residues
Settings: random library (experiment): 1;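 active = nucleation score significantly above 0 at FDR 0.05; inactive = not significantly above 0 or absent from output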
EASNCFAIRHFENKFAVETLICLVCTGVLTLQWQ gave an amyloid nucleation score of 5.9.
In the case of EASNCFAIRHFENKFAVETLICLVCVSIAMCSVG, the amyloid nucleation score is reported as “inactive”.
For EASNCFAIRHFENKFAVETLICLVDDGCNGHLLV, the amyloid nucleation score was “inactive”.
In the case of EASNCFAIRHFENKFAVETLICLVDDSMYMLIV, the amyloid nucleation score is reported as “inactive”.
In the case of EASNCFAIRHFENKFAVETLICLVDMGCQLSSGG, the amyloid nucleation score is reported as 5.1.
For EASNCFAIRHFENKFAVETLICLVEGYSLVASW, the amyloid nucleation score was “inactive”.
Work on EASNCFAIRHFENKFAVETLICLVELYFLERGYR yielded an amyloid nucleation score of 0.165.
EASNCFAIRHFENKFAVETLICLVENCNYRCPRQ gave an amyloid nucleation score of 6.22.
In the case of EASNCFAIRHFENKFAVETLICLVGEP, the amyloid nucleation score is reported as “inactive”.
EASNCFAIRHFENKFAVETLICLVGGQRCNLNAT gave an amyloid nucleation score of -0.493.
With EASNCFAIRHFENKFAVETLICLVGIRRFTCTRR the amyloid nucleation score was “inactive”.
Sequence EASNCFAIRHFENKFAVETLICLVGVSPCAKGAL has an amyloid nucleation score of 4.5.
In the case of EASNCFAIRHFENKFAVETLICLVHCISQLPDIS, the amyloid nucleation score is reported as “inactive”.
For EASNCFAIRHFENKFAVETLICLVICSWT, the amyloid nucleation score was “inactive”.
In the case of EASNCFAIRHFENKFAVETLICLVICVGHPGSLD, the amyloid nucleation score is reported as “inactive”.
With EASNCFAIRHFENKFAVETLICLVINISWVSYLK the amyloid nucleation score was “inactive”.
For EASNCFAIRHFENKFAVETLICLVLCPKYDTRSR, the amyloid nucleation score was 3.67.
For EASNCFAIRHFENKFAVETLICLVLQARISKLTH, the amyloid nucleation score was “inactive”.
With EASNCFAIRHFENKFAVETLICLVLSVAHKRVRF the amyloid nucleation score was “inactive”.
With EASNCFAIRHFENKFAVETLICLVMDASLKYDGE the amyloid nucleation score was -0.029.
With EASNCFAIRHFENKFAVETLICLVMRLVVMESSV the amyloid nucleation score was “inactive”.
In the case of EASNCFAIRHFENKFAVETLICLVNCSQHRYL, the amyloid nucleation score is reported as 4.46.
In the case of EASNCFAIRHFENKFAVETLICLVNGLETWTVAR, the amyloid nucleation score is reported as 5.96.
Sequence EASNCFAIRHFENKFAVETLICLVNMDRYAEDCG has an amyloid nucleation score of 7.16.
In the case of EASNCFAIRHFENKFAVETLICLVNRYLTIVCYC, the amyloid nucleation score is reported as “inactive”.
Work on EASNCFAIRHFENKFAVETLICLVNVNTFYRRWL yielded an amyloid nucleation score of 5.06.
EASNCFAIRHFENKFAVETLICLVPISLDIRRQE gave an amyloid nucleation score of 7.21.
With EASNCFAIRHFENKFAVETLICLVPLTLRYRLSR the amyloid nucleation score was “inactive”.
With EASNCFAIRHFENKFAVETLICLVPYRLRAYGLD the amyloid nucleation score was “inactive”.
Work on EASNCFAIRHFENKFAVETLICLVQ yielded an amyloid nucleation score of 1.55.
With EASNCFAIRHFENKFAVETLICLVRCVDQKVCGC the amyloid nucleation score was “inactive”.
In the case of EASNCFAIRHFENKFAVETLICLVRFHWCIGTEM, the amyloid nucleation score is reported as -0.211.
For EASNCFAIRHFENKFAVETLICLVRS, the amyloid nucleation score was “inactive”.
For EASNCFAIRHFENKFAVETLICLVRVIRRRPGVK, the amyloid nucleation score was “inactive”.
Sequence EASNCFAIRHFENKFAVETLICLVSAYVMYCLAP has an amyloid nucleation score of 1.01.
For EASNCFAIRHFENKFAVETLICLVSCFRLYVNPR, the amyloid nucleation score was “inactive”.
In the case of EASNCFAIRHFENKFAVETLICLVSDRSTAEQCL, the amyloid nucleation score is reported as “inactive”.
In the case of EASNCFAIRHFENKFAVETLICLVSESSRLETWG, the amyloid nucleation score is reported as “inactive”.
In the case of EASNCFAIRHFENKFAVETLICLVSEVHKNALGL, the amyloid nucleation score is reported as 3.09.
With EASNCFAIRHFENKFAVETLICLVSSSLYVVTAW the amyloid nucleation score was -0.029.
Sequence EASNCFAIRHFENKFAVETLICLVTEQYIMSSS has an amyloid nucleation score of 3.62.

Same assay, conditions: random library (experiment): 2
In the case of EASNCFAIRHFENKFAVETLICLVCNLRFATYIG, the amyloid nucleation score is reported as “inactive”.
With EASNCFAIRHFENKFAVETLICLVCVGMPSPAYP the amyloid nucleation score was 8.16.
EASNCFAIRHFENKFAVETLICLVCWIGPMNFWL gave an amyloid nucleation score of 5.82.
In the case of EASNCFAIRHFENKFAVETLICLVDLLGKKWFCQ, the amyloid nucleation score is reported as “inactive”.
For EASNCFAIRHFENKFAVETLICLVDNGSW, the amyloid nucleation score was “inactive”.
In the case of EASNCFAIRHFENKFAVETLICLVDQGLMQRQWK, the amyloid nucleation score is reported as 6.17.
With EASNCFAIRHFENKFAVETLICLVDS the amyloid nucleation score was “inactive”.
In the case of EASNCFAIRHFENKFAVETLICLVDYMGSNWPVR, the amyloid nucleation score is reported as 2.99.
EASNCFAIRHFENKFAVETLICLVESI gave an amyloid nucleation score of -0.948.
For EASNCFAIRHFENKFAVETLICLVESQCGYWCSR, the amyloid nucleation score was 3.08.
EASNCFAIRHFENKFAVETLICLVFLLN showed an amyloid nucleation score of -0.0677.
With EASNCFAIRHFENKFAVETLICLVFWFVGIKPQA the amyloid nucleation score was “inactive”.
With EASNCFAIRHFENKFAVETLICLVHLDLFVERFS the amyloid nucleation score was 0.868.
With EASNCFAIRHFENKFAVETLICLVIGLGLVYRRY the amyloid nucleation score was “inactive”.
With EASNCFAIRHFENKFAVETLICLVIKRGYSYPNG the amyloid nucleation score was “inactive”.
For EASNCFAIRHFENKFAVETLICLVKTFFTYRLTE, the amyloid nucleation score was “inactive”.
For EASNCFAIRHFENKFAVETLICLVKYDKQYGRVC, the amyloid nucleation score was “inactive”.
In the case of EASNCFAIRHFENKFAVETLICLVLFRN, the amyloid nucleation score is reported as “inactive”.
For EASNCFAIRHFENKFAVETLICLVLFVCFRMV, the amyloid nucleation score was “inactive”.
Sequence EASNCFAIRHFENKFAVETLICLVLHCGCNSVR has an amyloid nucleation score of 5.75.
In the case of EASNCFAIRHFENKFAVETLICLVLITCH, the amyloid nucleation score is reported as 4.99.
For EASNCFAIRHFENKFAVETLICLVLMLVIFVRNG, the amyloid nucleation score was “inactive”.
With EASNCFAIRHFENKFAVETLICLVLRVIHLEVE the amyloid nucleation score was “inactive”.
In the case of EASNCFAIRHFENKFAVETLICLVLTQRILCMTI, the amyloid nucleation score is reported as “inactive”.
EASNCFAIRHFENKFAVETLICLVLTVYDHKGDT gave an amyloid nucleation score of 6.32.
For EASNCFAIRHFENKFAVETLICLVMLLRFDMTSC, the amyloid nucleation score was “inactive”.
In the case of EASNCFAIRHFENKFAVETLICLVMRHMLQEGLL, the amyloid nucleation score is reported as “inactive”.
For EASNCFAIRHFENKFAVETLICLVMVL, the amyloid nucleation score was 2.33.
In the case of EASNCFAIRHFENKFAVETLICLVMVSQEWSMLH, the amyloid nucleation score is reported as “inactive”.
In the case of EASNCFAIRHFENKFAVETLICLVNSCHRKMGVI, the amyloid nucleation score is reported as “inactive”.
For EASNCFAIRHFENKFAVETLICLVPAWNTVAVRR, the amyloid nucleation score was “inactive”.
EASNCFAIRHFENKFAVETLICLVPYYEFCIMAW gave an amyloid nucleation score of 0.58.
In the case of EASNCFAIRHFENKFAVETLICLVRVRPSESYCK, the amyloid nucleation score is reported as 0.519.
For EASNCFAIRHFENKFAVETLICLVSDVGDNKCMS, the amyloid nucleation score was “inactive”.
For EASNCFAIRHFENKFAVETLICLVSFSL, the amyloid nucleation score was 4.76.

Same assay, conditions: random library (experiment): 3
For EASNCFAIRHFENKFAVETLICLVCSYLCPVWVA, the amyloid nucleation score was 5.85.
For EASNCFAIRHFENKFAVETLICLVDCPSPGARLW, the amyloid nucleation score was “inactive”.
For EASNCFAIRHFENKFAVETLICLVEAVLTRSKML, the amyloid nucleation score was “inactive”.
For EASNCFAIRHFENKFAVETLICLVEDTTWRVKGR, the amyloid nucleation score was 3.17.
With EASNCFAIRHFENKFAVETLICLVEGMCWLRIS the amyloid nucleation score was “inactive”.
In the case of EASNCFAIRHFENKFAVETLICLVERERRGPIGA, the amyloid nucleation score is reported as 0.0944.
For EASNCFAIRHFENKFAVETLICLVFGSSMACVML, the amyloid nucleation score was “inactive”.
For EASNCFAIRHFENKFAVETLICLVFRCSLMRNLG, the amyloid nucleation score was “inactive”.
Sequence EASNCFAIRHFENKFAVETLICLVFSQRKMGGRL has an amyloid nucleation score of 2.35.
With EASNCFAIRHFENKFAVETLICLVGHLSVLTYIR the amyloid nucleation score was “inactive”.
For EASNCFAIRHFENKFAVETLICLVGKYSYNYLTT, the amyloid nucleation score was “inactive”.
For EASNCFAIRHFENKFAVETLICLVGLLSRNYGFV, the amyloid nucleation score was “inactive”.
Sequence EASNCFAIRHFENKFAVETLICLVGNAWDTPWRV has an amyloid nucleation score of 7.03.
For EASNCFAIRHFENKFAVETLICLVGRSAGDKFLG, the amyloid nucleation score was 1.41.
For EASNCFAIRHFENKFAVETLICLVGSGPGSAWQL, the amyloid nucleation score was 6.15.
For EASNCFAIRHFENKFAVETLICLVGVQCSGLVAV, the amyloid nucleation score was “inactive”.
In the case of EASNCFAIRHFENKFAVETLICLVGWRGGPLTGC, the amyloid nucleation score is reported as “inactive”.
For EASNCFAIRHFENKFAVETLICLVHNDNRNANMA, the amyloid nucleation score was 7.41.
For EASNCFAIRHFENKFAVETLICLVICQRL, the amyloid nucleation score was “inactive”.
For EASNCFAIRHFENKFAVETLICLVKFAVDSGLVT, the amyloid nucleation score was “inactive”.
Sequence EASNCFAIRHFENKFAVETLICLVKISARVERSL has an amyloid nucleation score of 1.17.
With EASNCFAIRHFENKFAVETLICLVKSASAEVAHE the amyloid nucleation score was “inactive”.
For EASNCFAIRHFENKFAVETLICLVLCGPSMAPLG, the amyloid nucleation score was 4.75.
For EASNCFAIRHFENKFAVETLICLVLGTCASVSDA, the amyloid nucleation score was “inactive”.
For EASNCFAIRHFENKFAVETLICLVLRSHVVVLAG, the amyloid nucleation score was “inactive”.
For EASNCFAIRHFENKFAVETLICLVLRVWKCSWTL, the amyloid nucleation score was 0.
Sequence EASNCFAIRHFENKFAVETLICLVLSGNI has an amyloid nucleation score of 5.64.
EASNCFAIRHFENKFAVETLICLVM gave an amyloid nucleation score of 8.49.
EASNCFAIRHFENKFAVETLICLVMSSEGGLDGH showed an amyloid nucleation score of 5.8.
For EASNCFAIRHFENKFAVETLICLVNFRDLVILSS, the amyloid nucleation score was 5.35.
With EASNCFAIRHFENKFAVETLICLVNSEGSDTGSP the amyloid nucleation score was 5.38.
For EASNCFAIRHFENKFAVETLICLVNSLPVPVRSW, the amyloid nucleation score was 1.21.
Sequence EASNCFAIRHFENKFAVETLICLVQGTNYTRWAR has an amyloid nucleation score of 4.38.
For EASNCFAIRHFENKFAVETLICLVRWL, the amyloid nucleation score was “inactive”.
With EASNCFAIRHFENKFAVETLICLVRWWCAVKLRS the amyloid nucleation score was “inactive”.
In the case of EASNCFAIRHFENKFAVETLICLVSH, the amyloid nucleation score is reported as “inactive”.
For EASNCFAIRHFENKFAVETLICLVSLMYFGFYMV, the amyloid nucleation score was “inactive”.
With EASNCFAIRHFENKFAVETLICLVSSISSTELSG the amyloid nucleation score was “inactive”.
Sequence EASNCFAIRHFENKFAVETLICLVSVEA has an amyloid nucleation score of 0.721.
With EASNCFAIRHFENKFAVETLICLVSVGCNEVSLD the amyloid nucleation score was 7.01.
For EASNCFAIRHFENKFAVETLICLVSWNVEEERGL, the amyloid nucleation score was “inactive”.
With EASNCFAIRHFENKFAVETLICLVTFGWMCRSLV the amyloid nucleation score was 7.25.
For EASNCFAIRHFENKFAVETLICLVTLWAARLCGV, the amyloid nucleation score was “inactive”.
